# Experimental data published in PubChem BioAssay AID493131 (Broad Institute, 2011).
# Screen size: about 340,000 compounds; about 3,300 (0.97%) were called active. Inconclusive means that the source gave no clear call. Such entries were picked first, then a sample of the others.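 The calls were made as follows: active = mean activation above about 17%, with every replicate also reaching it (limit read from the data, passing the limit was not always enough); inconclusive = only one of the two conditions met; inactive = the rest.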
# Target: Protein FosB (Mus musculus) (UniProt P13346)
# UniProt P13346, sequence (P13346 whole entry, looked up): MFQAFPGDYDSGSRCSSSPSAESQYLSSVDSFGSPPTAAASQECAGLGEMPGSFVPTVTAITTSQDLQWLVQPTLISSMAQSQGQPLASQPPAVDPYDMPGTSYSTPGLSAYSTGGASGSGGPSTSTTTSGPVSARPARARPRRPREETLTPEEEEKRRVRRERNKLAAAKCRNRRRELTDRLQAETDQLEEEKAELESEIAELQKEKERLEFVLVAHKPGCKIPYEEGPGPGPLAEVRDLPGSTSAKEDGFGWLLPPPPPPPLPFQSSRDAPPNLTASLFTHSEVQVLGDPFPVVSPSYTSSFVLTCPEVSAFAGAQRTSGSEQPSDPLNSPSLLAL
# Assay: enhancers of mouse delta FosB DNA binding – biochemical, fluorescence polarization, TAMRA-CDK5 oligo, single point, primary screen (AID 493131);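 also: fluorescence polarization rise as delta FosB binds a TAMRA Cdk5 AP-1 oligo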
# Settings: purified delta FosB, at 25 µM, stronger effect = higher value, percent of positive-control signal above neutral wells
row,Structure (SMILES),activation
1,Cc1c(C(=O)OCC(=O)NCc2ccccc2)oc2ccccc12,inconclusive: 16.1%
2,Cc1ccc(/C=N/N2C(=S)SC(C)(C)C2N(O)C(=O)Nc2ccc([N+](=O)[O-])cc2)cc1 (stereo not drawn),inconclusive: 20.9%
3,Cc1ccc(NC(=O)Cn2c(O)c(N=NC(=O)c3cc4ccccc4cc3O)c3ccccc32)cc1,inactive: -10.9%
4,Cc1[nH]c2ccccc2c1/C=N/Nc1nc2ccccc2[nH]1,inconclusive: 22.7%
5,O=C(N/N=C/c1cccc([N+](=O)[O-])c1)c1cc(-c2ccccc2)nc2ccccc12,inconclusive: 28.5%
6,COC(=O)c1cn(CC(=O)NCc2cccs2)c2ccccc12,inconclusive: 19.5%
7,O=C(/C=C/c1ccc(Cl)cc1)Nn1c(-c2cccs2)nc2ccccc2c1=O,inconclusive: 20%
8,Nc1nc(N)c(N=Nc2ccccc2)c(=O)[nH]1,inactive: 9.11%
9,Cc1ccc2c(c1)C(=O)N1[C@H]3c4cc(Cl)ccc4OC[C@@H]3[C@H](c3ccccc3)[C@]1(C)C(=O)N2,inconclusive: 23%
10,Cc1cc(C(=O)CSc2nnc(-c3ccc(OC(F)F)cc3)o2)c(C)n1Cc1cccs1,inconclusive: 23.4%
11,Cc1ccc2c(c1)NC(=O)c1cc([N+](=O)[O-])ccc1O2,active: 31.4%
12,COc1cc2nc(N3CCN(C(=O)[C@H]4COc5ccccc5O4)CC3)nc(N)c2cc1OC,inactive: -0.918%
13,CC1CCc2cc(F)ccc2N1C(=O)CSc1nnc2c(n1)[nH]c1ccc(F)cc12 (stereo not drawn),inconclusive: 35.1%
14,CNc1c(NS(=O)(=O)c2ccc(OC)c(Cl)c2)c(=O)oc2ccccc12,active: 64.5%
15,O=C(CSc1nnc(COc2ccc(Cl)cc2Cl)o1)Nc1ccccn1,inconclusive: 20%
16,Cc1csc2c(N3CCN(C(=O)Nc4ccc(Cl)c(Cl)c4)CC3)ncnc12,inconclusive: 16.7%
17,O=C(NCc1nc2ccccc2[nH]1)C1=C[C@H](c2csc3ccccc23)C[C@H](OCc2ccc(CO)cc2)O1,inconclusive: 16.3%
18,O=C(Nc1ccc(Oc2nnc(-c3ccccc3)c3ccccc23)cc1)c1ccccc1,inconclusive: 60.3%
19,O=C(CCc1nc2sc3c(c2c(=O)[nH]1)CCCC3)Nc1cccc(Cl)c1,inconclusive: 16.1%
20,NC1=NC(=O)/C(=C/c2ccccc2OCC(=O)Nc2ccc(F)cc2)S1,inconclusive: 19%
21,O=C(Nc1ccc(F)cc1)c1nc[nH]c1C(=O)Nc1ccc([N+](=O)[O-])cc1,inconclusive: 19.1%

row,Structure (SMILES),activation
1,O=C1COc2ccc(C(=O)COc3ccc([N+](=O)[O-])cc3)cc2N1,active: 17.9%
2,Cc1ccc(-c2n[nH]c(=S)n2/N=C/c2sccc2C)cc1,inconclusive: 21%
3,CCOC(=O)c1ccc(S(=O)(=O)NNC(=O)COc2ccccc2C)cc1,inconclusive: 17.5%
4,Cc1cc(NC(=O)CSc2nnnn2-c2cc(Cl)ccc2C)no1,inconclusive: 25.1%
5,Cc1ccc(-c2csc3nc(SCC(N)=O)n(Cc4ccccc4)c(=O)c23)cc1,inconclusive: 16.1%
6,Cc1cccc(N2CCN(C(=O)[C@H](C)N3C(=O)C4CC=CCC4C3=O)CC2)c1C (stereo partly drawn),inactive: -4.5%
7,CCc1ccc2c(c1)Sc1ccccc1CC2N1CCN(C)CC1 (stereo not drawn),inconclusive: 16.5%
8,Cc1ccc(OCc2ccc(C(=O)Nc3ccc(S(N)(=O)=O)cc3)o2)cc1,inconclusive: 22.4%
9,Cc1ccc(-c2nnc3sc(-c4ccncc4)nn23)cc1,inconclusive: 25.1%
10,COc1ccccc1CC(=O)Nc1cccc2ccccc12,inconclusive: 17.2%
11,COc1cc(NC(=O)c2ccccc2)c(OC)cc1NC(=O)CN1C(=O)NC2(CCCCC2)C1=O,inactive: -14.3%
12,Cc1c(C)n(C)c2ccc(C(=O)NCCCN3CCN(c4ccc(F)cc4)CC3)cc12,inactive: 2.71%
13,CC12CCC(=O)N1C(C(=O)Nc1nc(-c3cc(F)ccc3F)cs1)CS2 (stereo not drawn),inconclusive: 16.1%
14,CSc1ccc2c(c1)C(N1CCN(C)CC1)Cc1ccccc1S2 (stereo not drawn),inconclusive: 17.8%
15,COc1cccc(-c2cc(C(=O)Nc3ccc(N(C)C(C)=O)cc3)c3cc(Br)ccc3n2)c1,inconclusive: 23.7%
16,COc1ccccc1NS(=O)(=O)c1cccc(NC(=O)c2nn(C)c(=O)c3ccccc23)c1,inconclusive: 16.8%
17,O=C(c1cc2cc(Cl)cc(Cl)c2oc1=O)N1CCOCC1,inactive: 6.19%
18,Cc1ccc2nc(/C(C#N)=C/c3ccc(O)c(O)c3)[nH]c2c1,inactive: -15.1%
19,O=C(CSc1nc(-c2ccc(F)cc2)cc(C(F)(F)F)n1)Nc1ccc2c(c1)OCO2,inconclusive: 19.3%
20,CCN(CC)S(=O)(=O)c1ccc(NC2c3ccccc3C(=O)N2Cc2ccc3c(c2)OCO3)cc1 (stereo not drawn),inactive: -8.23%
21,COc1cccc(-c2c(C(=O)N/N=C/c3ccsc3)nnn2-c2nonc2N)c1,active: 20.4%

row,Structure (SMILES),activation
1,Cc1cc2oc(=O)cc(CN(C)Cc3ccccc3F)c2cc1Cl,inactive: -7.4%
2,N#CCC(=O)N/N=C/c1ccc(Sc2nc3ccccc3s2)o1,inconclusive: 17.1%
3,Cc1nc(C)c(-c2csc(Nc3cccc(O)c3)n2)s1,inactive: -12.8%
4,COc1ccc(CCN(C(=O)C(F)(F)F)C(C(=O)NC2CCCCC2)c2ccc(C)s2)cc1 (stereo not drawn),inconclusive: 16.2%
5,CC(=O)c1ccc(NC(=O)c2ccc(CNc3c(N4CCCC4)c(=O)c3=O)cc2)cc1,inconclusive: 21.8%
6,COc1ccccc1/C=C/C(=O)NC(=S)Nc1ccc(S(=O)(=O)N(C)c2ccccc2)cc1,active: 23.8%
7,Cc1cccc(C)c1NC(=O)Cn1nc(-c2ccc(Cl)s2)ccc1=O,inconclusive: 24.9%
8,COc1ccc(C(CC(=O)O)c2ccc3c(c2)OCO3)cc1 (stereo not drawn),inactive: 6.89%
9,N#C/C(=C(/O)c1ccc(Cl)c([N+](=O)[O-])c1)c1nc2ccccc2[nH]1,active: 42.3%
10,CN(c1ccccc1)S(=O)(=O)c1ccc(C(=O)OCC(=O)NCc2ccco2)cc1,inactive: -2.19%
11,O=C(CCCCCNc1nc(=S)[nH]c2ccccc12)NCCC1=CCCCC1,inconclusive: 20.7%
12,O=C(CSc1nnc(NC(=O)c2ccco2)s1)Nc1cccc(F)c1,inconclusive: 17.8%
13,COc1ccccc1Cn1c(SCC(N)=O)nc2c(oc3ccccc32)c1=O,inconclusive: 29.8%
14,CCOC(=O)CNC(=O)c1sc(NC(=O)/C=C/c2ccccc2)nc1C,inconclusive: 20.1%
15,COc1ccc(Cc2nnc(SCC(=O)Nc3ccc(C)c(Cl)c3)[nH]c2=O)cc1,inconclusive: 16.2%
16,O=C(Nc1cccc(Cl)c1)N1CCCCCC1,inactive: -6.26%
17,N#Cc1ccc(/C=C\c2nccc3c2[nH]c2ccccc23)cc1,inconclusive: 24.5%
18,C/C(=N\NC(=O)c1nnn(-c2nonc2N)c1-c1ccc2c(c1)OCO2)c1cccs1,inconclusive: 17.8%
19,Cc1ccc(NC(=O)NCC2CCN(Cc3cccc(Cl)c3)CC2)cc1Cl,active: 20.1%
20,CCCN1CCN(CCCNC(=O)c2cc3c(=O)[nH]c4ccc(C)cc4c3s2)CC1,inactive: -40.1%
21,CCCCCCOC(=O)CCc1c(C)nc(N)[nH]c1=O,inactive: 1.2%

row,Structure (SMILES),activation
1,N#Cc1c(NC(=O)CN2CCN(S(=O)(=O)c3ccc4c(c3)OCCO4)CC2)sc2c1CCC2,inconclusive: 34.8%
2,Cc1nc2cc(N3CCOCC3)c(NC(=O)C3CC3)cc2c(=O)n1Cc1ccccc1,inactive: -2.81%
3,O=C(c1ccc([N+](=O)[O-])cc1)n1nc(-c2ccccc2)nc1NCc1ccc(F)cc1,inactive: -7.56%
4,CCN1CCN(c2ccc(S(=O)(=O)N3CCCCC3)cc2NC(=O)Cc2c(Cl)cccc2Cl)CC1,inconclusive: 23.6%
5,O=C(N/N=C/c1ccncc1)c1cccc(NC(=O)c2ccc(Cl)cc2)c1,active: 41.1%
6,O=C(Nc1ccc2[nH]c(=O)[nH]c2c1)c1cc(F)c(F)cc1Cl,inactive: 4.14%
7,O=C(Nc1ccccc1)c1ccccc1OCc1cccc([N+](=O)[O-])c1,inconclusive: 17.3%
8,O=[N+]([O-])c1ccc2nc(C(O)C(O)c3nc4ccc([N+](=O)[O-])cc4[nH]3)[nH]c2c1 (stereo not drawn),inconclusive: 16.9%
9,O=C(NC(NC(=S)Nc1ccccc1C(=O)O)C(Cl)(Cl)Cl)c1cccc([N+](=O)[O-])c1 (stereo not drawn),inactive: 0.662%
10,Cc1cc(C(=O)N/N=C\c2ccc(COc3ccc([N+](=O)[O-])cc3)o2)ccc1[N+](=O)[O-],active: 36%
11,COc1cccc2sc3cc(NCCCN4CCOCC4)ccc3c(=O)c12,inconclusive: 17.6%
12,CC(C)C(=O)Nc1nnc(COc2ccc(Cl)cc2)s1,inconclusive: 17.2%
13,COc1cc2cc(CN(Cc3cccs3)C(=S)Nc3ccc(C)cc3)c(=O)[nH]c2cc1OC,inconclusive: 16.6%
14,Cc1cccc(NC(=O)C2CC(=O)N/C(=N/N=C/c3ccco3)S2)c1 (stereo not drawn),inconclusive: 17.4%
15,O=C(Nc1c(-c2ccccc2)nc2c(Br)cc(Br)cn12)c1ccco1,inconclusive: 20.1%
16,O=C(NC(Cc1ccccc1)C(=O)O)/C(=C\c1ccc(Cl)cc1)NC(=O)c1ccccc1 (stereo not drawn),inactive: -4.69%
17,CCNC(=O)c1c(NC(=O)C2COc3ccccc3O2)sc2c1CCCC2 (stereo not drawn),active: 26.6%
18,N#C/C(=C\c1ccc(OC(F)F)cc1)C(=O)N1CCCCC1,inactive: -5.79%
19,CCOC(=O)C1CCN(C(=O)c2ccc(S(=O)(=O)Nc3ccccc3Cl)cc2)CC1,inactive: -14.9%
20,CCN(c1ccccc1)S(=O)(=O)c1ccc(Cl)c(NC(=O)CN2CCN(C)CC2)c1,inactive: 2.69%
